Hit rate of the full screen: of about 48,000 compounds, about 120 (0.25%) were called active. Roughly 4% stayed inconclusive and do not appear here. The call rests on the fitted dose curve; in most records, active means well fitted activation curve with a large enough effect; inconclusive means small, poorly fitted or top-dose-only effect, or another doubt; inactive means no such curve, though single readings can be large or run the other way. The list shows a part of the results.
test: Primary qHTS for Identification of Small Molecule Activators of Huntingtin-Antisense Promoter Activity; settings: HEK293 HTT-AS promoter firefly luciferase reporter, 24 h; series mostly up to 57.5 µM; activity change, positive = activation: at the top concentration; further: nearly all actives have a fitted effect of over 55% in size
How it was run: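 Firefly luciferase readout (Dual-Glo, 10 min RT) after 24 h, 37 °C compound exposure (final up to 57.5 uM) of HEK293 reporter cells cultured 24 h beforehand; PTC124 at 50 uM final as control inhibitor; activity scaled vehicle 0%, zero RLU -100%.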

Activity change, positive = activation, inactive:
CN(C)c1ccc(C(CNS(=O)(=O)c2ccc(F)cc2)N2CCCC2)cc1 (stereo not given) -4.39%, O=c1c2cc3c(cc2n(Cc2cccc(Cl)c2)c(=O)n1Cc1nc(-c2ccccc2)no1)OCO3 -15.9%, COc1ccc(NC(=O)CCNS(=O)(=O)c2cccc3nonc23)c(OC)c1 -5.41%, CC(=O)N1CCCc2cc(S(=O)(=O)N3CCCC(C(=O)Nc4cccc(F)c4)C3)ccc21 (stereo not given) -43%, COc1ccc(N2CCN(C(=O)c3ccc(Nc4nc5ccccc5n5nnnc45)cc3)CC2)cc1 2.48%, NC(=NCc1ccccc1)NC(=O)c1nc(Cl)c(N)nc1N -15.6%, O=C(Nc1ncc(Cc2ccc(Cl)cc2)s1)c1ccc2c(c1)CC(c1ccccc1)OC2=O (stereo not given) -12.9%, Cc1cc(Nc2cccc(Cl)c2)nc2ccc(NC(=O)Cc3ccc(Cl)cc3)cc12 -36.9%, COc1cc(N2C(=O)CSC23C(=O)N(Cc2cccc(F)c2)c2ccccc23)cc(OC)c1OC (stereo not given) -9.19%, COc1ccc(NC(=O)c2sc3nc4c(cc3c2N)CCCCCC4)c(OC)c1 5.01% [at 11.5 µM, percent change from vehicle, -100% = no light], CCN(CC)CCNC(=O)CN1C(=O)COc2ccc(S(=O)(=O)N3CCOCC3)cc21 -12%, CCOC(=O)Cn1c(=O)n(CC2CCCO2)c2nc(-c3ccc(OCC)cc3)nc(C(N)=O)c21 (stereo not given) -8.37%, CCOc1ccccc1NC(=O)Cn1c(=O)n(Cc2ccccc2)c(=O)c2c1c1cc(C)ccc1n2C -13.8%, COc1ccc(CCNC(=O)c2ccc3c(c2)CCN3S(=O)(=O)c2ccccc2)cc1OC -28.6%, COc1ccccc1Nc1c2c(nc3ccc(NC(=O)c4ccc(OC)c(OC)c4)cc13)CCCC2 -22.5%, Cc1ccc(-n2ncc(C(=O)NCc3ccccc3)c2C2CCN(C(=O)OC(C)(C)C)CC2)cc1 -30.2%, CCOC(=O)c1cc(-c2ccc(OC)c(S(=O)(=O)NC3CCCCC3)c2)on1 -5.72%, CCCCN(CC)CCCNC(=O)CN1C(=O)CSc2ccc(S(=O)(=O)N3CCOCC3)cc21 4.26%, COc1ccc(CCNC(=O)CN2C(=O)COc3ccc(C)cc32)cc1OC -20.3%, CCN(C(=O)Cn1nc(Cc2ccncc2)c2ccccc2c1=O)c1cccc(Cl)c1 -13%, c1ccc2sc(SSc3nc4ccccc4s3)nc2c1 5.83% [at 25.1 µM, percent change from vehicle, -100% = no light], COc1ccccc1N(CC(=O)N1CCC(C)CC1)S(=O)(=O)c1ccc(C)cc1 -17.3%, COCCCNC(=O)c1c(-c2ccccc2)c(-c2ccccc2)nn(C)c1=O -14.3%, COc1cc(NC(=O)c2nn(C)c3c2CS(=O)(=O)c2ccccc2-3)cc(OC)c1 -7.95%, O=C(Nc1ccc2nc3n(c(=O)c2c1)CCCCC3)C(=O)Nc1ccccc1F 15.8%, CCc1ccc(Cn2c(CNS(=O)(=O)c3ccc([N+](=O)[O-])cc3)nc3cccnc32)cc1 -21.1%, Cc1cccc(Nc2nn3c(=O)c4cc5c(cc4nc3s2)OCO5)c1 24.4%, CCn1nc(C)c(CCN(C)C(=O)Nc2ccc(C)c(Cl)c2)c1C 1.02%, Cc1ccccc1Nc1c(-c2ccc(Br)cc2O)nc2sccn12 -32.3%, CCOc1ccc(NC(=O)Cn2cc(C(=O)c3ccc(OC)cc3)c(=O)c3cc4c(cc32)OCO4)cc1 -34.3%, COc1ccccc1N1CCN(C(c2ccc(Cl)cc2)c2nnc(-c3cccc(F)c3)o2)CC1 (stereo not given) -16.4%, N#Cc1c(O)c2c(-c3ccc(-c4ccccc4O)cc3)csc2[nH]c1=O 2.01%, O=C(Nc1ccc(Cl)c(-c2nc3ccccc3o2)c1)c1ccc(-c2cccc([N+](=O)[O-])c2)o1 -7.9%, CCCSc1oc(-c2ccco2)nc1S(=O)(=O)c1ccc(Cl)cc1 -11.7%, COc1ccccc1CNC(=O)c1cnc(N(C)C)nc1 -5.39%, COc1ccc(CC(=O)Nc2sc3c(c2C(=O)Nc2cccc(C)c2)CCCCC3)cc1 -33.8%, CCCCOC(=O)c1ccc(OC(=O)c2sc3ncn(Cc4ccccc4Cl)c(=O)c3c2C)cc1 -9.29%, Cc1ccc(Cl)cc1Nc1sc(C(=O)c2ccc(F)cc2)c(N)c1S(C)(=O)=O -33.8%, O=C(CSc1nc(=O)n(Cc2ccco2)c2c1CCC2)Nc1cccc(F)c1 -19.7%, CCOc1ccc(CNCCCSc2nnnn2C)cc1OC -10.8%, COc1cccc(CNC(=O)Cc2csc3nc(-c4ccccc4)cn23)c1 -8.46%, Cn1c(=O)c2nc3ccc(NC(=O)C(F)(F)F)cc3nc2n(C)c1=O 8.27%, Cc1ccc2c(c1)C(c1ccccc1)N(C(=O)c1ccc(S(=O)(=O)N3CCCC3)cc1)CC(=O)N2 (stereo not given) -8.14%, N=C(N)c1ccc(OCCCCCOc2ccc(C(=N)N)cc2)cc1, Cc1ccc(NC(=O)CN2C(=O)CSc3ccc(S(=O)(=O)N(C)C)cc32)c(C)c1 -5.44%, COc1ccc2sc(N(Cc3cccnc3)C(=O)C3COc4ccccc4O3)nc2c1 (stereo not given) 11%, O=S(=O)(c1ccccc1)c1nnn2c1nc(N1CCN(c3ccccc3)CC1)c1cc(Cl)ccc12 9.89%, NS(=O)(=O)OC[C@@H]1C[C@@H](n2ccc3c(N[C@H]4CCc5ccccc54)ncnc32)C[C@H]1O -31%, O=C(Cn1cc2c(n1)CCCC2)Nc1cc(C(F)(F)F)ccc1Cl -23.9%, CCCn1cc(S(=O)(=O)c2ccccc2)c(=O)c2cc(F)c(N3CCCCCC3)cc21 -30.9%, Cc1nc(SCc2ccccc2Cl)c(C#N)c(C)c1C -13.8%, Cc1cc(C)cc(NC(=O)c2sc3nc4n(c(=O)c3c2C)N=C(c2ccc(F)cc2)CS4)c1 -4.4%, COc1ccc(NC(=O)Cn2c(SCc3ccc(F)cc3)nc3cccnc32)c(OC)c1 3.32%, COc1cccc(N2CCN(C(=O)c3cc4c(=O)n(Cc5cccnc5)ccc4nc3C)CC2)c1 -2.23%, CCOc1ccc(C(=O)Nc2nc(-c3ccc(Br)cc3)ns2)cc1 -15.1%, COC(=O)c1ccccc1NC(=O)CCC(=O)N1CC(C)Sc2ccccc21 (stereo not given) -7.07%, COC(=O)C(NC(=O)CCc1c(C)nc2cc(-c3cccc(F)c3)nn2c1C)C(C)C (stereo not given) -65.7%, Cc1ccc2c(=O)cc(C(=O)Nc3ccc(S(=O)(=O)N4CCCCC4)cc3)oc2c1 -2.9%, CCC(Cc1ccccc1)NC(=O)CCS(=O)(=O)c1cc2c(cc1Cl)NC(=O)CO2 (stereo not given) -14.2%, COc1ccc(NC(=O)C2CCCN(c3cnccn3)C2)c(OC)c1 (stereo not given) 8.16%, CCOc1ccc(CNC(=O)Nc2ccc3c(c2)N(C)C(=O)c2ccccc2S3)cc1 -48.8%, Cc1ccc(NC(=O)CSc2cn(CC(=O)N3CCOCC3)c3ccccc23)cc1Cl -5.14%, CCOc1ccc2c(c1)c(=O)c(C(=O)c1ccc3c(c1)OCO3)cn2Cc1cccc(F)c1 -23.4%, COc1ccc(-n2ccnc(NCc3cccs3)c2=O)cc1 -3.1%, CCOc1ccc(-n2c(C)nc3cc(C(=O)NCc4ccc(C)cc4)ccc32)cc1 -19.8%, COC(=O)Nc1nc2ccc(C(=O)c3ccccc3)cc2[nH]1, COc1ccc(-c2ccc(-c3noc(-c4cc(OC)cc(OC)c4)n3)c(OC)n2)cc1 -0.866%, CCn1c(=O)cc(SCC(=O)Nc2cc(Cl)ccc2OC)c2ccccc21 -17.2%, CCOc1ccc(-c2nnc(SCC(=O)Oc3ccccc3)o2)cc1 -89.5%, Cc1ccc(C(=O)Nc2nnc(S(=O)(=O)N(C)Cc3ccc(F)cc3)s2)cc1 -0.753%, CC1CCCN(c2nc(-c3ccccc3O)nc3ccccc23)C1 (stereo not given) -10.8%, O=c1c2c3c(sc2nnn1Cc1ccc(F)cc1)CCCC3 0%, CCc1cccc(NC(=O)CSc2n[nH]c(-c3ccccc3Cl)n2)c1 -28.5%, O=C(Nc1ccc2nc(SCCOc3ccccc3Cl)sc2c1)c1ccco1 -24%, Cc1nnc(N2CCN(c3cccc(Cl)c3)CC2)c2c1nnn2Cc1ccc(F)cc1 5.71%, COc1cccc(-c2nn(C)c3sc(C(=O)NCCc4cccc(C)c4)cc23)c1 -28.1%, CCOC(=O)C1CCCN(C(=O)Cn2ncc3c(C)n(Cc4ccc(F)cc4)c(C)c3c2=O)C1 (stereo not given) -39.9%, CCOc1ccc(OCC)c(NC(=O)c2cnn(-c3ccc(F)cc3)c2C2CCN(C(=O)OC(C)(C)C)CC2)c1 -3.36%, Cn1c(NCCN(CCO)CCCc2ccc([N+](=O)[O-])cc2)cc(=O)n(C)c1=O -6%, CCCNC(=O)Cn1ncc2c3ccccc3n(CCC)c2c1=O -15.7%, Cc1ccc(C)c(CN2C(=O)c3ccccc3S(=O)(=O)c3ccc(C(=O)N4CCCCCC4)cc32)c1 -36.9%, c1ccc2c(Cc3c[nH]c4ccccc34)c[nH]c2c1 -24.5%, O=C(NCC(c1ccco1)S(=O)(=O)c1cccs1)c1ccc(F)cc1 (stereo not given) 17.3%, CC(=O)Nc1ccc(C2Sc3ccccc3NC3=C2C(=O)c2ccccc23)cc1 (stereo not given) 29%, CCOC(=O)c1ccc2oc(=O)n(Cc3ccccc3)c2c1 -8.74%, Cc1oc2ncn(CC(C)C)c(=O)c2c1C(=O)NCCCN1CCCCC1 -7.94%, COc1cccc(NC(=O)CSc2ncc(S(=O)(=O)c3ccc(C)c(C)c3)c(=O)[nH]2)c1 -3.98%, O=C(COc1ccc(F)cc1)Nc1ccc2nc(SCC(=O)N3CCc4ccccc43)sc2c1 -11.7%, COc1ccccc1CNC(=O)c1ccc(N2CCCC2)c(NC(=O)NCCC(C)C)c1 -3.07%, Cc1cc(C)c(NC(=O)c2cc3sc(Cl)cc3n2C)c(C)c1 11.9%, CC(=O)c1ccc(N2CCN(S(=O)(=O)c3ccc(-c4cc(C(F)(F)F)on4)s3)CC2)cc1 -18.1%, Cc1ccccc1OCC(=O)OCc1cc(=O)n2nc(C3CCCCC3)sc2n1 4.89%, CCc1c(-c2ccccc2)nc2ccccc2c1C(=O)NCCc1ccccc1 -6.61%, Cc1csc2nc(COc3ccccc3NC(=O)c3ccco3)cc(=O)n12 0.904%, CSc1cccc(NC(=O)Cn2c3ncccc3c(=O)n2-c2ccc(C)cc2)c1 -5.03%

— PubChem BioAssay AID1508624 (National Center for Advancing Translational Sciences (NCATS), 2021)
